Test results as given in the supplement of paper PMC11741623.
Some of the results follow. Interaction screen of human proteins with wild-type SARS-CoV-2 proteins by split-DHFR complementation in yeast, 1 µg/mL methotrexate. Value = fitness of the pair (three or more lineages) minus that of the viral protein without a human partner, on a scale set by negative (0) and fused positive (1) controls, mean of up to three cultures; higher = more likely to interact. Active = false discovery rate below 0.05 (one-sided t-test) in at least one culture. Nearly all pairs are not hits, and differences among them are mostly noise (correlation between cultures about 0.3); most hits were seen in one culture only. Human sequences are the Swiss-Prot entries looked up by gene name; the clone may be another isoform. NSP2 values were corrected by the authors for a growth advantage. Listed are human proteins with a hit and a random twelfth of the others.

Experiments:
Assay in all cases: yeast fitness gain over the viral ORF with no human partner (scaled fitness); higher = more likely to interact
SARS-CoV-2 M = biological target: SARS-CoV-2 M
Procedure: (§1)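 Split mouse DHFR complementation in pooled diploid yeast: human ORFeome clones carry one fragment and viral ORFs the other; barcoded lineages compete in 1 µg/mL methotrexate and fitness is read by barcode sequencing in up to three cultures.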

SARS-CoV-2 NSP1 = biological target: SARS-CoV-2 NSP1
Procedure: as §1

SARS-CoV-2 NSP10 = biological target: SARS-CoV-2 NSP10
Procedure: as §1

SARS-CoV-2 NSP12 = biological target: SARS-CoV-2 NSP12
Procedure: as §1

SARS-CoV-2 NSP13 = biological target: SARS-CoV-2 NSP13
Procedure: as §1

SARS-CoV-2 NSP14 = biological target: SARS-CoV-2 NSP14
Procedure: as §1

SARS-CoV-2 NSP2 = biological target: SARS-CoV-2 NSP2
Procedure: as §1

SARS-CoV-2 NSP5 = biological target: SARS-CoV-2 NSP5
Procedure: as §1

SARS-CoV-2 NSP7 = biological target: SARS-CoV-2 NSP7
Procedure: as §1

SARS-CoV-2 NSP8 = biological target: SARS-CoV-2 NSP8
Procedure: as §1

SARS-CoV-2 NSP9 = biological target: SARS-CoV-2 NSP9
Procedure: as §1

SARS-CoV-2 ORF10 = biological target: SARS-CoV-2 ORF10
Procedure: as §1

SARS-CoV-2 ORF3B = biological target: SARS-CoV-2 ORF3B
Procedure: as §1

SARS-CoV-2 ORF6 = biological target: SARS-CoV-2 ORF6
Procedure: as §1

SARS-CoV-2 ORF7A = biological target: SARS-CoV-2 ORF7A
Procedure: as §1

SARS-CoV-2 ORF7B = biological target: SARS-CoV-2 ORF7B
Procedure: as §1

SARS-CoV-2 ORF8 = biological target: SARS-CoV-2 ORF8
Procedure: as §1

SARS-CoV-2 ORF9B = biological target: SARS-CoV-2 ORF9B
Procedure: as §1

[1] = biological target: SARS-CoV-2 ORF9Bwu (the 73-codon ORF)
Procedure: as §1

SARS-CoV-2 S = biological target: SARS-CoV-2 S
Procedure: as §1

SARS-CoV-2 N = biological target: SARS-CoV-2 N
Procedure: as §1

SARS-CoV-2 NSP16 = biological target: SARS-CoV-2 NSP16
Procedure: as §1

SARS-CoV-2 NSP6 = biological target: SARS-CoV-2 NSP6
Procedure: as §1

SARS-CoV-2 ORF3A = biological target: SARS-CoV-2 ORF3A
Procedure: as §1

SARS-CoV-2 NSP4 = biological target: SARS-CoV-2 NSP4
Procedure: as §1

Measured: yeast fitness gain

B1: ZNF488, Q96MN9 (protein)
chain: MPEWPPCLSVAPALVITMAAGKGAPLSPSAENRWRLSEPELGRGCKPVLLEKTNRLGPEAAVGRAGRDVGSAELALLVAPGKPRPGKPLPPKTRGEQRQSAFTELPRMKDRQVDAQAQEREHDDPTGQPGAPQLTQNIPRGPAGSKVFSVWPSGARSEQRSAFSKPTKRPAERPELTSVFPAGESADALGELSGLLNTTDLACWGRLSTPKLLVGDLWNLQALPQNAPLCSTFLGAPTLWLEHTQAQVPPPSSSSTTSWALLPPTLTSLGLSTQNWCAKCNLSFRLTSDLVFHMRSHHKKEHAGPDPHSQKRREEALACPVCQEHFRERHHLSRHMTSHS
inactive: SARS-CoV-2 M 0.0719 | SARS-CoV-2 NSP1 = -0.121 | SARS-CoV-2 NSP10 = -0.0911 | SARS-CoV-2 NSP12 = 0.00238 | SARS-CoV-2 NSP13 = -0.0917 | SARS-CoV-2 NSP14 = -0.2 | SARS-CoV-2 NSP2 = -0.101 | SARS-CoV-2 NSP5 = 0.112 | SARS-CoV-2 NSP7 = 0.00278 | SARS-CoV-2 NSP8 = -0.112 | SARS-CoV-2 NSP9 = 0.0325 | SARS-CoV-2 ORF10 = 0.0262 | SARS-CoV-2 ORF3B -0.0562 | SARS-CoV-2 ORF6 = 0.0526 | SARS-CoV-2 ORF7A 0.041 | SARS-CoV-2 ORF7B -0.0107 | SARS-CoV-2 ORF8 = -0.012 | SARS-CoV-2 ORF9B -0.241 | [1] 0.0483 | SARS-CoV-2 S 0.0757

B2: ARHGAP25, P42331 (protein)
chain: MSLKLPRNWDFNLKVEAAKIARSRSVMTGEQMAAFHPSSTPNPLERPIKMGWLKKQRSIVKNWQQRYFVLRAQQLYYYKDEEDTKPQGCMYLPGCTIKEIATNPEEAGKFVFEIIPASWDQNRMGQDSYVLMASSQAEMEEWVKFLRRVAGTPCGVFGQRLDETVAYEQKFGPHLVPILVEKCAEFILEHGRNEEGIFRLPGQDNLVKQLRDAFDAGERPSFDRDTDVHTVASLLKLYLRDLPEPVVPWSQYEGFLLCGQLTNADEAKAQQELMKQLSILPRDNYSLLSYICRFLHEIQLNCAVNKMSVDNLATVIGVNLIRSKVEDPAVIMRGTPQIQRVMTMMIRDHEVLFPKSKDIPLSPPAQKNDPKKAPVARSSVGWDATEDLRISRTDSFSSMTSDSDTTSPTGQQPSDAFPEDSSKVPREKPGDWKMQSRKRTQTLPNRKCFLTSAFQGANSSKMEIFKNEFWSPSSEAKAGEGHRRTMSQDLRQLSDSQRTSTYDNVPSLPGSPGEEASALSSQACDSKGDTLASPNSETGPGKKNSGEEEIDSLQRMVQELRKEIETQKQMYEEQIKNLEKENYDVWAKVVRLNEELEKEKKKSAALEISLRNMERSREDVEKRNKALEEEVKEFVKSMKEPKTEA
inactive: SARS-CoV-2 M 0.0196 | SARS-CoV-2 N -0.0758 | SARS-CoV-2 NSP1 = -0.0659 | SARS-CoV-2 NSP10 = 0.0653 | SARS-CoV-2 NSP12 = 0.0311 | SARS-CoV-2 NSP13 = 0.0652 | SARS-CoV-2 NSP14 = 0.0998 | SARS-CoV-2 NSP16 = 0.0824 | SARS-CoV-2 NSP2 = -0.136 | SARS-CoV-2 NSP5 = -0.0653 | SARS-CoV-2 NSP6 = 0.0919 | SARS-CoV-2 NSP7 = -0.0331 | SARS-CoV-2 NSP8 = -0.0196 | SARS-CoV-2 NSP9 = -0.0383 | SARS-CoV-2 ORF10 = 0.0349 | SARS-CoV-2 ORF3A 0.0709 | SARS-CoV-2 ORF3B -0.000317 | SARS-CoV-2 ORF6 = 0.00664 | SARS-CoV-2 ORF7A 0.0319 | SARS-CoV-2 ORF7B -0.0388 | SARS-CoV-2 ORF8 = -0.248 | SARS-CoV-2 ORF9B 0.0152 | [1] -0.208 | SARS-CoV-2 S 0.0259

B3: HUS1, O60921 (protein)
chain: MKFRAKIVDGACLNHFTRISNMIAKLAKTCTLRISPDKLNFILCDKLANGGVSMWCELEQENFFNEFQMEGVSAENNEIYLELTSENLSRALKTAQNARALKIKLTNKHFPCLTVSVELLSMSSSSRIVTHDIPIKVIPRKLWKDLQEPVVPDPDVSIYLPVLKTMKSVVEKMKNISNHLVIEANLDGELNLKIETELVCVTTHFKDLGNPPLASESTHEDRNVEHMAEVHIDIRKLLQFLAGQQVNPTKALCNIVNNKMVHFDLLHEDVSLQYFIPALS
inactive: SARS-CoV-2 M -0.374 | SARS-CoV-2 NSP1 = 0.00919 | SARS-CoV-2 NSP10 = 0.0198 | SARS-CoV-2 NSP12 = 0.0404 | SARS-CoV-2 NSP13 = -0.0345 | SARS-CoV-2 NSP2 = -0.0396 | SARS-CoV-2 NSP5 = -0.0673 | SARS-CoV-2 NSP6 = -0.00739 | SARS-CoV-2 NSP7 = 0.00599 | SARS-CoV-2 NSP8 = -0.169 | SARS-CoV-2 ORF10 = -0.0798 | SARS-CoV-2 ORF3A -0.0135 | SARS-CoV-2 ORF6 = -0.00717 | SARS-CoV-2 ORF7A 0.0874 | SARS-CoV-2 ORF7B -0.000463 | SARS-CoV-2 ORF8 = -0.0201 | SARS-CoV-2 ORF9B -0.0403 | [1] -0.00544 | SARS-CoV-2 S -0.0087

B4: FARP2, O94887 (protein)
chain: MGEIEGTYRVLQTAGMRLGAQTPVGVSTLEPGQTLLPRMQEKHLHLRVKLLDNTMEIFDIEPKCDGQVLLTQVWKRLNLVECDYFGMEFQNTQSYWIWLEPMKPIIRQIRRPKNVVLRLAVKFFPPDPGQLQEEYTRYLFALQLKRDLLEERLTCADTTAALLTSHLLQSEIGDYDETLDREHLKVNEYLPGQQHCLEKILEFHQKHVGQTPAESDFQVLEIARKLEMYGIRFHMASDREGTKIQLAVSHMGVLVFQGTTKINTFNWSKVRKLSFKRKRFLIKLHPEVHGPYQDTLEFLLGSRDECKNFWKICVEYHTFFRLLDQPKPKAKAVFFSRGSSFRYSGRTQKQLVDYFKDSGMKRIPYERRHSKTHTSVRALTADLPKQSISFPEGLRTPASPSSANAFYSLSPSTLVPSGLPEFKDSSSSLTDPQVSYVKSPAAERRSGAVAGGPDTPSAQPLGPPALQPGPGLSTKSPQPSPSSRKSPLSLSPAFQVPLGPAEQGSSPLLSPVLSDAGGAGMDCEEPRHKRVPADEAYFIVKEILATERTYLKDLEVITVWFRSAVVKEDAMPATLMTLLFSNIDPIYEFHRGFLREVEQRLALWEGPSKAHTKGSHQRIGDILLRNMRQLKEFTSYFQRHDEVLTELEKATKRCKKLEAVYKEFELQKVCYLPLNTFLLKPIQRLLHYRLLLRRLCGHYSPGHHDYADCHDALKAITEVTTTLQHILIRLENLQKLTELQRDLVGIENLIAPGREFIREGCLHKLTKKGLQQRMFFLFSDMLLYTSKGVAGTSHFRIRGLLPLQGMLVEESDNEWSVPHCFTIYAAQKTIVVAASTRLEKEKWMLDLNSAIQAAKSGGDTAPALPGRTVCTRPPRSPNEVSLEQESEDDARGVRSSLEGHGQHRANTTMHVCWYRNTSVSRADHSAAVENQLSGYLLRKFKNSHGWQKLWVVFTNFCLFFYKTHQDDYPLASLPLLGYSVSIPREADGIHKDYVFKLQFKSHVYFFRAESKYTFERWMEVIQGASSSAGRAPSIVQDGPQPSSGLEGMVRGKEE
inactive: SARS-CoV-2 M 0.0194 | SARS-CoV-2 NSP10 = -0.122 | SARS-CoV-2 NSP12 = -0.0584 | SARS-CoV-2 NSP13 = -0.243 | SARS-CoV-2 NSP2 = 0.0312 | SARS-CoV-2 NSP4 = -0.2 | SARS-CoV-2 NSP5 = -0.00429 | SARS-CoV-2 ORF10 = 0.0178 | SARS-CoV-2 ORF3A -0.309 | SARS-CoV-2 ORF3B 0.023 | SARS-CoV-2 ORF6 = -0.553 | SARS-CoV-2 ORF7B 0.0855 | SARS-CoV-2 ORF8 = -0.0345 | SARS-CoV-2 ORF9B -0.0597 | SARS-CoV-2 S 0.085
